Data reported in the supplement of paper PMC11417369.
± gives the standard deviation of the averaged measurements. This is one part of the list.

These sequences were tested on PfAP2-I AP2 domain 3 (GST-tagged) (assay: gcPBM binding intensity (ln(normalized median fluorescence intensity)); higher = stronger DNA binding).
In short: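 Binding of GST-tagged P. falciparum DNA-binding domains, expressed in E. coli and used at about 25 μg on average, was carried out for 1 h in 1× PBS containing 1% milk, 0.2 mg/ml BSA, 0.5% salmon testes DNA and 0.03% Triton X-100. The target was an Agilent 4 × 180k array of primer-extended double-stranded 36-bp intergenic genomic probes plus negative controls, read with Alexa488 anti-GST antibody at 488 nm. Binding intensity is the highest Masliner-normalised natural-log median intensity across replicate spots of either probe orientation.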

Sequence	gcPBM binding intensity (ln)
ATATATATATGTATGTATATATATATATATGTTTGA [GTGCAC_negctrl_site561]	9.05 ± 0.11
GTATCAATAAAAAACAGTACATATATAATATATTTA [XGTACX_site1083]	7.64 ± 0.43
AAAAAAAAGGAAATAACACACATGTATATATCTATA [CACACA_site6856]	7.42 ± 0.53
TTCATATAGAATTGTACACACAAAAACGACATTGTG [CACACA_site7061]	7.96 ± 0.25
TTTTTAAAAATATACACACACAGATATTATATATAT [CACACA_site786]	8.31 ± 0.6
ATATATGTTCCTTTTACACACATAATCTTTTTTTTA [CACACA_site2661]	8.04 ± 0.7
AAAATATAATATAATGCACACATAAAAAAAAAAAAA [CACACA_site7989]	11.1 ± 0.49
ATATTGTGTTATAAATGTACACAATTTCCTTTCATA [XGTACX_site7481]	7.78 ± 0.46
TTTAAAAAAAAAAATACACACATAAAAGTTTTCAAA [CACACA_site6471]	7.47 ± 0.57
TACAAAAGCTATAACATTCACCACATTATAAAAATA [CACACA_negctrl_site1112]	7.78 ± 0.18
TTACAAATATTATAATGTACCCATTTTTTTTGCCTT [XGTACX_site6612]	7.83 ± 0.33
TTTTCATTAAGATACTTATAATAGTTTATTAGTAAA [CACACA_negctrl_site586]	7.38 ± 0.61
AAAATATATAAATATACATGCATAATTAATAGTATA [TGCATGCA_site804]	7.65 ± 0.61
AATTCAAAGAAAAACTGTACGTGTAGCAAACATCCT [XGTACX_site599]	7.91 ± 0.46
TAATATGAAGATGGCAGTACTCTAGTCAATTTTTAC [XGTACX_site5375]	7.74 ± 0.69
ATATATTTTATACATACACACATATATATATTTTTT [CACACA_site3940]	7.93 ± 0.52
TGATTAAATCAAGAAAGTACAAAATGAAATATATAA [XGTACX_site4319]	7.97 ± 0.45
AAAATAATTTTATAGTTGCACTATATCGTATACAAT	9.25 ± 0.38
TAAAGTGTAAAATTCACACACATATAAATAAATATA [CACACA_site6765]	7.63 ± 0.4

Sequence	gcPBM binding intensity (ln)
TTAATTATGTTTTGGTGTACAATAAATTGAATAGAT [XGTACX_site3306]	8.24 ± 0.4
CTACTTAATATTTGTACACACATATTTAACCTACTA [CACACA_site5725]	8.32 ± 0.2
ATATATATTTATATATGTACATATTTTTGTGTATTT [XGTACX_site1183]	7.81 ± 0.49
ATGTTATAATTTAGTGTGCACATATTAAGAGGAACA	10.3 ± 0.099
ATATATATATATATATGTACATAATAATTTTATAAA [XGTACX_site5105]	9.31 ± 0.48
AATAATAATAGAAACACACACACATTTTTAATAATA [CACACA_site1217]	7.62 ± 0.49
TCCATTGTCACCTTTTGTACTTAAATTTTTTCCTCC [XGTACX_site1573]	8.29 ± 0.43
CTTTTTTTTTTTTTTTGTCCGTATGAGGGACCTATA [XGTACX_site8839]	7.82 ± 0.42
CAAAAATTACCCTTGTGTACACATATATTATATGTA [XGTACX_site1124]	8.41 ± 0.23
ATAAAAAAATCAGACACACACACGTAAACACATACA [CACACA_site5529]	8.06 ± 0.35
ATATCATCTTCTCTATCATTTTTTTTTTTTTTTTTT [CACACA_negctrl_site1220]	8.74 ± 0.34
TGAGATAAATGTGGTAGTACATTTTTTTTATATATA [XGTACX_site1918]	7.95 ± 0.35
CTATTTGGGGGAAGAGTGCATGACATGAATATAAAA	10.5 ± 0.36
AAAAGGAAGATATATACACACATACAAATATATATA [CACACA_site5236]	7.97 ± 0.83
TTTTTTTTTTTTTTCACACACTAATAATATTATCAT [CACACA_site4417]	8.24 ± 0.53
ATAAATTTTTAAAAATATGAATTATGTAATTTGTGA [CACACA_negctrl_site1621]	7.51 ± 0.49
CTATATTATAAATATACACACATATCTTAAGTATAA [CACACA_site3096]	7.7 ± 0.46
TTGATGTATACAATGTAGATTATTTAATATTTCAAC [CACACA_negctrl_site73]	7.54 ± 0.54
ATTAGTATTAGATGATGTACATTTATATTGAAATAT [XGTACX_site8537]	7.7 ± 0.4

Sequence	gcPBM binding intensity (ln)
ATAAAAATACAGTTAACACACATGTGTATTTATATG [CACACA_site7727]	7.82 ± 0.55
GAAAACGTTTGAAGTTGTACATATGTATAAAAAGAA [XGTACX_site2304]	8.48 ± 0.28
TGTTATTTAAATAATTCTTTTTAAAAGATGAATTAT [CACACA_negctrl_site1226]	7.43 ± 0.33
ATGGTCTGTTAAAGATGTACTTTTTAAAAATAAACG [XGTACX_site2583]	7.99 ± 0.39
ATAATATAACACAAATGTACAAAAAATAAATAAATA [XGTACX_site385]	7.88 ± 0.64
AACAAACACAGACACACACACACACCCAAATGATTA [CACACA_site2431]	8.06 ± 0.28
TATATATATACTTAATGTACATATATATATATATAT [XGTACX_site3102]	9.2 ± 0.44
CATACTCACCAACACACACACACACCCATATAGAAT [CACACA_site592]	8.19 ± 0.54
CTTTTTGAAATATTAACACACATTTTGTTAATTAAT [CACACA_site4046]	7.85 ± 0.4
CACAGATAAATTAACACACACACACCCATATATATA [CACACA_site3960]	8.42 ± 0.67
TATATTAAAGGGGTTTCACACACATGTATAATTAAT [CACACA_site7950]	7.7 ± 0.65
TATTATTTAATCAAATGTACATAGAAAATGTATGTA [XGTACX_site4433]	7.62 ± 0.28
ATGTAAAATTAATATTGTACTTTTCCATCATGATAC [XGTACX_site2669]	7.67 ± 0.6
AATAGGAAAGATTTTGCATGTGATATAAGTAATTTT [TGCATGCA_site657]	7.68 ± 0.79
CATATAATAAATAGATGTACAGACTATATATATATA [XGTACX_site6575]	9.21 ± 0.3
TTTATATGATACACACGTACATATACACATATACAC [XGTACX_site8123]	8.54 ± 0.67
TATATATATATTTTTGCACACATTTTTTAAGGTACA [CACACA_site2145]	9.64 ± 0.28
TATAATATTTATATAACACACATATAGATTTATTTA [CACACA_site6269]	7.58 ± 0.3
TACGTAGCCACACTAACACACACAAATATGCACAAT [CACACA_site8942]	9.92 ± 0.26
